Results as given in PubChem BioAssay AID1345083 (National Center for Advancing Translational Sciences (NCATS), 2018).
Among all 94,000 compounds or so, about 6,200 (6.6%) were called active. Inconclusive means that the source gave no clear call. Such entries were picked first, then a sample of the others. The call rests on the fitted dose curve; in most records, active means well fitted inhibition curve with a large enough effect; inconclusive means small, poorly fitted or top-dose-only effect; inactive means flat fitted curve, though single readings scatter. Potencies beside an inconclusive call are fits to weak or partial responses and may not hold up.

experiment: Cytotoxic Profiling in HEK 293 Cell Line of Diverse Libraries Using Quantitative High-Throughput Screening; conditions: HEK 293 viability, ATP luminescence (CellTiter-Glo), 48-72 h; activity change, negative = cytotoxicity: at 115 µM (top of the series) unless noted; series mostly up to 115 µM; further: nearly all actives have a fitted effect of over 60% in size
How it was run: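 Luminescence from cellular ATP, measured with CellTiter-Glo, indicates HEK 293 viability. Cells plated at 250 cells/well are treated with compound for 48 or 72 hr at 37 degree Celsius before reagent addition.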
On the % scale 0 is the no-effect control and ±100 the full control effect; potency means the concentration at half of the fitted maximal effect; tags describe the fitted curve by direction and shape.

SMILES	activity change, negative = cytotoxicity	Potency	outcome
Cc1nc(C)c(C(=O)N2CCC3(CC2)CC(N2CCCC2)CCO3)s1 (stereo not drawn)	inactive: 0.51%		
O=C1Nc2ccccc2CC12CCN2Cc1ccccc1C(F)(F)F (stereo not drawn)		active: 79.4 µM	
COc1ccccc1-c1ccnc(-c2nnc(C)n2Cc2ccncc2)c1	inactive: -17.1% [at 172 µM]		
Cc1ncoc1C(=O)N1CCCC(CCc2ccc(F)c(F)c2)C1 (stereo not drawn)		inconclusive: 63.1 µM [inhibitor, partial curve, poor fit]	
CC1(C)C[C@H](NC2CCOCC2)[C@@]2(CCC(=O)N3CCOCC3)CC[C@](C)(O)C[C@@H]12	inactive: -2.01% [at 172 µM]		
Cc1nccn1C(C)CN1C(=O)NC2(CCNCC2)C1=O (stereo not drawn)			inactive
CC(=O)N1CCN(c2ncnc3c2CN(c2ccccc2C)C(=O)CN3C)CC1	inactive: -9.49%		
Cn1nc(-c2cccc(F)c2)c(N2CCCCC2)c1NC(=O)Nc1ccccc1		inconclusive: 8.91 µM [inhibitor, full curve, poor fit]	
Cc1ccc(C(=O)N2CCCC2C(=O)N2CCC(c3ccccc3)CC2)cc1 (stereo not drawn)		inconclusive: 50.1 µM [inhibitor, partial curve, poor fit]	
Cc1ccccc1C(=O)N1CCCC2(CN[S+](=O)([O-])c3cccnc3N2)C1 (stereo not drawn)		inconclusive: 100 µM [inhibitor, single point]	
Cc1ccc(NC(=O)CN2C(=O)NC(c3ccc(Cl)cc3)C3=C2COC3=O)cc1 (stereo not drawn)		inconclusive: 12.6 µM [inhibitor, full curve, poor fit]	
COc1ccc(-c2noc([C@@H]3CCCN3C(=O)c3cc(F)ccc3F)n2)cc1OC		inconclusive: 44.7 µM [inhibitor, partial curve, poor fit]	
CC(=O)N(C)Cc1ccc(-c2ccccc2)cc1		inconclusive: 112 µM [inhibitor, partial curve]	
COc1ccc(C(=O)N2CCC3(CC2)NCCc2c3[nH]c3ccccc23)c(OC)c1		inconclusive: 50.1 µM [inhibitor, partial curve, poor fit]	
CC(=O)Nc1ccc(CN2CCn3c(nn(-c4ccc(Cl)cc4)c3=O)C2)cc1		inconclusive: 56.2 µM [inhibitor, partial curve, poor fit]	
Cc1ccsc1C(=O)N1CCC(n2cc(-c3nc(-c4ccccc4)no3)nn2)CC1		active: 39.8 µM	
Cc1cccnc1NC(=O)C1c2ccccc2C(=O)N(C2CCCC2)C12CCCC2 (stereo not drawn)		inconclusive: 39.8 µM [inhibitor, partial curve, poor fit]	
COc1cccc(-c2cc(C(=O)NCC#N)c3cnn(C)c3n2)c1		inconclusive: 126 µM [inhibitor, single point]	
CN(Cc1ccc2nonc2c1)Cc1cn(-c2ccccc2)nn1		inconclusive: 79.4 µM [inhibitor, partial curve]	
Cc1ccc(CNC(=O)c2ccc(NC(=O)c3cc4c(=O)[nH]c(C)cn4n3)cc2)cc1		inconclusive: 89.1 µM [inhibitor, single point]	
CCOCCNC(=O)C1(c2ccc(Cl)cc2)CCOCC1	inactive: -0.288% [at 172 µM]		

SMILES	activity change, negative = cytotoxicity	Potency	outcome
O=c1n(-c2ccc(Cl)cc2)nc2n1CCN([S+](=O)([O-])c1cccc(C(F)(F)F)c1)C2		inconclusive: 89.1 µM [inhibitor, single point]	
Cc1ccccc1[C@@H]1CN(C(=O)CCC(=O)NC2CCCC2)C[C@H]1C(=O)O	inactive: -11.2%		
O=C(CCc1ccccc1)Nc1ccc([C@@H](O)[C@H]2COCC(=O)N2Cc2ccccc2F)cc1		inconclusive: 56.2 µM [inhibitor, partial curve, poor fit]	
CCOc1ccccc1NC(=O)N1CCCC(Cn2cnc3cccnc32)C1 (stereo not drawn)	inactive: -3.69%		
O=C(NCc1cccs1)c1ccc2c(c1)CC(=O)N2Cc1ccc(F)cc1		inconclusive: 63.1 µM [inhibitor, partial curve, poor fit]	
CCCN(CC1CCOC1)C(=O)c1ccc(C(F)(F)F)cc1 (stereo not drawn)	inactive: -2%		
COc1cc(-c2nc(-c3c(C)noc3C)cc3cc(C)oc23)ccn1		inconclusive: 56.2 µM [inhibitor, full curve]	
COc1ccc(NC(=O)C2(C)CCCCC(=O)N2)cc1 (stereo not drawn)	inactive: 9.49%		
COc1ccc(C(=O)N[C@H]2CO[C@H]3[C@@H]2OC[C@@H]3n2cc(-c3ccccn3)nn2)cc1	inactive: -23.7% [at 172 µM]		
O=C(N[C@H]1C[C@@H](CO)N(CCc2ccccc2)C1)c1cccnc1	inactive: -0.51%		
COc1ccc(CCc2nc3nccc(-c4ccc(OC)c(OC)c4)n3n2)cc1OC		inconclusive: 89.1 µM [inhibitor, single point]	
CC1(C)C(=O)N(Cc2ccccc2F)[C@H]2CN(Cc3ccc4[nH]ccc4c3)C[C@@H]2[S+]1(=O)[O-]		inconclusive: 79.4 µM [inhibitor, partial curve]	
CCCCS(=O)(=O)N1CC(n2cc(COc3ccccc3)nn2)C1	inactive: 1.55%		
CCOC(=O)C1CCN(C(=O)c2cc(-c3ccncc3)cn2Cc2ccc(C)cc2)CC1		inconclusive: 50.1 µM [inhibitor, partial curve, poor fit]	
CNC(=O)c1cc(C2CC2)nc2c1c(C1CCCN(C(=O)Cc3cccc(Cl)c3)C1)nn2C (stereo not drawn)		inconclusive: 56.2 µM [inhibitor, partial curve, poor fit]	
O=C(O)C[C@@H]1CCN(C(=O)c2ccc(C(F)(F)F)cc2)C[C@@H]1CCN1CCN(c2cccc(C(F)(F)F)c2)CC1		inconclusive: 79.4 µM [inhibitor, partial curve, poor fit]	
COc1cccc(-c2cc(C(=O)N3CCC4(CC3)CC(OC)CCO4)[nH]n2)c1 (stereo not drawn)		inconclusive: 89.1 µM [inhibitor, single point]	
Cc1noc(C)c1-c1cc2cc(CNC3CCOCC3)oc2c(NC2CCN(C)CC2)n1		inconclusive: 50.1 µM [inhibitor, partial curve, poor fit]	
CCCCc1cc(C[C@H]2CNCC[C@H]2CC(=O)NC2CCCCC2)no1		inconclusive: 126 µM [inhibitor, partial curve, poor fit]	
COCCOC1CCN(C(=O)c2cccc3[nH]ccc23)CC1	inactive: 15.8%		
CC(=O)Nc1cccc(C(=O)NC2CCCN(c3cc(-c4ccccc4)[nH]n3)C2)c1 (stereo not drawn)		inconclusive: 89.1 µM [inhibitor, single point]	

SMILES	activity change, negative = cytotoxicity	Potency	outcome
CNC(=O)[C@@H]1C[C@@H](O)CN1C1CCN(C(=O)CCc2c[nH]c3ccccc23)CC1	inactive: -3.9%		
O=C(NCCN1CCCCC1)C1CCc2ncc(-c3ccc(F)cc3)n2C1 (stereo not drawn)		inconclusive: 35.5 µM [inhibitor, partial curve]	
O=C(Cc1ccccn1)N1CCN(c2nccc(Nc3ccccc3F)n2)CC1		inconclusive: 89.1 µM [inhibitor, single point]	
O=C(NC1CCCC1)C1CCN(Cc2ccccc2-c2cccnc2)CC1		inconclusive: 50.1 µM [inhibitor, partial curve, poor fit]	
COc1ccc(-c2nn(-c3ccccc3)cc2CN2CCC(CO)CC2)c(F)c1		inconclusive: 89.1 µM [inhibitor, single point]	
O=C(Nc1ccc(C(F)(F)F)cc1)N1CCC2(CC1)C(=O)NCN2Cc1ccc(Cl)cc1		inconclusive: 50.1 µM [inhibitor, partial curve, poor fit]	
Oc1ccccc1CN1C[C@H](O)C[C@H]1c1nc(-c2ccc(F)cc2)no1		inconclusive: 112 µM [inhibitor, partial curve]	
COc1ncccc1CNC[C@H]1Cn2cc(-c3ccc4c(c3)OCCCO4)nc2CO1		active: 89.1 µM	
O=C(c1ccc(-c2ccc(CO)cc2)nc1)N1CCC(Oc2cccnc2)CC1		inconclusive: 89.1 µM [inhibitor, single point]	
CC(C)CN1CCOC[C@H](Oc2ccc(C(F)(F)F)cc2)C1		inconclusive: 112 µM [inhibitor, partial curve, poor fit]	
Cc1noc(C)c1CCCNC(=O)CCC[C@@H]1[C@H]2CCCN3CCC[C@@H](CN1C)[C@@H]23	inactive: 0.474%		
COc1cc(CNC(=O)c2cnc3c(c2)N(C(=O)CCc2ccccc2)CCC3)cc(OC)c1		inconclusive: 100 µM [inhibitor, partial curve, poor fit]	
c1ccc2[nH]c([C@H]3CCN(CC4CCCCC4)C3)nc2c1		inconclusive: 126 µM [inhibitor, partial curve]	
COc1ccccc1-c1cc(C(=O)NCc2cccnc2)c2c(c1)N(C)CCO2		inconclusive: 112 µM [inhibitor, single point]	
COc1cccc2c1ccn2CCNC(=O)Cn1nc2c(cc1=O)CCCCC2		inconclusive: 89.1 µM [inhibitor, single point]	
Clc1ccccc1Nc1cnc2ccc(N3CCOCC3)nn12		inconclusive: 56.2 µM [inhibitor, partial curve, poor fit]	
CC(=O)NC1(C)CCN(Cc2cccc(Oc3ccccc3)c2)CC1		inconclusive: 100 µM [inhibitor, partial curve]	
COc1cc(NC(=O)N2CC[C@H](c3nc4ccccc4o3)C2)cc(OC)c1		inconclusive: 126 µM [inhibitor, single point]	
Cn1c(C(=O)NC(C)(C)C)cc2c1CCN(Cc1ccc(F)cc1)C2		inconclusive: 31.6 µM [inhibitor, partial curve, poor fit]	
CCC(CC)C(=O)NC[C@H]1O[C@@H](CC(=O)N2CCN(c3ccccc3OC)CC2)[C@H](O)[C@@H]1O			inactive
COCc1ccc2c(c1)c(OC(C)(C)C(=O)Nc1ccccn1)nn2Cc1cccc(OC)c1		inconclusive: 56.2 µM [inhibitor, partial curve, poor fit]	
